The source of these data is article PMC4336329 (PLoS ONE, 2015).

About 14,000 (4.5%) of roughly 310,000 compounds showed an effect of 50% or more. Effects have a minus sign here. The list shows a part of the results.
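Also: peak tail current of the secondary pulse compared with the same well before compound.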

The target in this test is human ether-à-go-go-related gene (hERG) potassium channel (human, UniProt Q12809). The test is described as follows: primary screen, population patch clamp on CHO cells stably expressing hERG.
Chain of human ether-à-go-go-related gene (hERG) potassium channel (Q12809 whole entry, looked up): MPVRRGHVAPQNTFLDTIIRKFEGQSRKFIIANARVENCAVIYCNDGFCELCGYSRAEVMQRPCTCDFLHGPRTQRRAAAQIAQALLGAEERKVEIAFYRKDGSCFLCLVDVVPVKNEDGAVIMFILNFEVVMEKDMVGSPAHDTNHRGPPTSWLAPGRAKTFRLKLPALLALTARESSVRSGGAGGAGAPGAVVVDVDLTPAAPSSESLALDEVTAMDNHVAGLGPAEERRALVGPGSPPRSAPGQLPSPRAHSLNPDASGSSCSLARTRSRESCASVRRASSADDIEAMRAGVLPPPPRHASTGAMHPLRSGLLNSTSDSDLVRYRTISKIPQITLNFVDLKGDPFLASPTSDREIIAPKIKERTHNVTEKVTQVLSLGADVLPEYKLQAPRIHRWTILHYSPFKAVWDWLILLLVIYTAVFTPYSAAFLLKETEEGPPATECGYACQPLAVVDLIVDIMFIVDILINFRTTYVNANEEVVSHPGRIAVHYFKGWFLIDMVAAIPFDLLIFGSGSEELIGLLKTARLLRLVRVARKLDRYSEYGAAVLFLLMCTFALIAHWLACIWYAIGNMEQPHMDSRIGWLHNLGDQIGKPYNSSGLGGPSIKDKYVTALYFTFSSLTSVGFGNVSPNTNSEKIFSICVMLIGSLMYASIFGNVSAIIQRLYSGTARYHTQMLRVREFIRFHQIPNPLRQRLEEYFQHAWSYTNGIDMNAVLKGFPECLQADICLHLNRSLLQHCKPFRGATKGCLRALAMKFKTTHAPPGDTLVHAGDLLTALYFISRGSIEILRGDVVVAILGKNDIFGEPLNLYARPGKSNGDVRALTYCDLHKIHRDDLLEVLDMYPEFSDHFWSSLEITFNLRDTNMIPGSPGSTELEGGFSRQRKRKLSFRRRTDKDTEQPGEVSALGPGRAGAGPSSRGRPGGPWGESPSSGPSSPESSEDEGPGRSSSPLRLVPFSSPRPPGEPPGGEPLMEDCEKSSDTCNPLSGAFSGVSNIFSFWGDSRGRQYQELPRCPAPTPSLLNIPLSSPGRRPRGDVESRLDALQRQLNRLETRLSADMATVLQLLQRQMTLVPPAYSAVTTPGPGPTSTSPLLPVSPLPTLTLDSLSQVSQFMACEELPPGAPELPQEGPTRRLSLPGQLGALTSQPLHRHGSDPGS
For the compound `COc1ccc2c(c1)C(NC(=O)C(F)(F)F)CC2=O` (stereo not shown), the “hERG current change (%, negative = inhibition) at 10uM” value is reported as 2.14%. Then `CCOc1ccc(NC(=O)C(c2ccccn2)N(C(=O)CCl)c2ccc(F)cc2)cc1` (stereo not shown), with -11.9%; and `CN1CCN(NC(=O)CN2C(=O)/C(=C/c3c(Cl)cccc3Cl)SC2=S)CC1`, with -2.16%. Regarding `O=C(NCc1ccc(-c2nc3ccccc3s2)cc1)c1cc2ccccc2o1`, the “hERG current change (%, negative = inhibition) at 10uM” value was -1.71%. For `Cc1ccc(CN2CC[C@H]3C=CCc4cccc(c43)C2)cc1` the value was -22.1%. Then `N#Cc1nc(COc2ccc(Br)cc2)oc1NCCN1CCOCC1`, with -56.6%. Then `CC(=O)NC12CC3CC(C1)CC(C(=O)N1CCN(S(=O)(=O)c4cccc(C(F)(F)F)c4)CC1)(C3)C2`, with -19.2%; and `CN(C)S(=O)(=O)N(CC(=O)Nc1ccccc1)c1ccccc1`, with -1.67%.

With `Cc1ccc2[nH]c3c(=O)n(CCCN4CCN(C)CC4)cnc3c2c1`, the “hERG current change (%, negative = inhibition) at 10uM” value was -37%. With `CC(=O)c1c(C)[nH]c(C(=O)N2CCCCCC2)c1C`, the “hERG current change (%, negative = inhibition) at 10uM” value is recorded as -4.63%. For `C=CCn1c(C(C)NC(=O)c2ccccc2C)n[nH]c1=S` (stereo not shown) the value was 12.3%; for `Cc1ccc(SC(C)C(=O)Nc2ncn[nH]2)cc1` (stereo not shown), -6.83%. Then `COc1ccc(C(=O)NCC(c2ccc3c(c2)OCO3)N2CCN(c3ccc(OC)cc3)CC2)cc1` (stereo not shown), with -25.9%. Then `C[C@H]1C=C(C(=O)NCc2nc3ccccc3[nH]2)O[C@@H](OCc2ccc(CO)cc2)C1`, with 4.75%; and `Cc1cccc(C(=O)NCCCn2ccnc2)c1C`, with 9.31%; and `Cc1ccc2c3c(c(SCC(=O)Nc4nonc4C)nc2c1)CCCC3`, with 1.22%. As for `CC(/C=N/NC(=O)Cc1cccn1C)=C\c1ccco1`, the “hERG current change (%, negative = inhibition) at 10uM” value is reported as -13.1%.

Turning to `COc1cccc2cc(C(=O)C3=C(O)C(=O)N(Cc4ccco4)C3c3cccnc3)oc12` (stereo not shown), the “hERG current change (%, negative = inhibition) at 10uM” value was -5.95%.

On to `O=C1c2ccc([N+](=O)[O-])cc2NC(c2ccco2)N1/N=C/c1ccco1` (stereo not shown), for which the “hERG current change (%, negative = inhibition) at 10uM” value was -35%. For `CCc1nnc(NC2=NCCC2)s1` the value was 2.96%. For the compound `CCOc1ccc(-n2ccc(=O)c(C(=O)Nc3ccc(S(=O)(=O)N4CCOCC4)cc3)n2)cc1`, the “hERG current change (%, negative = inhibition) at 10uM” value was found to be 6.07%. For `Cc1ccc(C)c(SCc2noc(C(=O)NCC3CCCO3)c2C(=O)O)c1` (stereo not shown) the value was 13.6%. Then `O=C(O)CNC1=NCCCCC1`, with 0.366%; and `COc1cccc(/C=N/NC(=O)c2cccc([N+](=O)[O-])c2)c1OS(=O)(=O)c1ccc(C)cc1`, with -12.9%; and `CN(Cc1cccc(Cl)c1)C(=O)C1CCN(C(=O)Nc2ccccc2)CC1`, with -55.9%. Then `COC(=O)c1c(O)cc(=O)n2c1CCCCC2`, with 12.7%; and `Cc1c(Br)c(O)c(Br)c(O)c1/C=N/n1c(-c2ccccc2)n[nH]c1=S`, with 16.9%. Take `COc1ccc(C(=O)NC(C)CCc2ccccc2)c(OC)c1` (stereo not shown): the “hERG current change (%, negative = inhibition) at 10uM” value was -26.3%.

As to `COc1ccc(C(=O)n2cnc(N)n2)cc1`, the “hERG current change (%, negative = inhibition) at 10uM” value is listed as 8.54%. Then `CCCC(=O)NC(Oc1ccc(Cl)cc1Cl)C(Cl)(Cl)Cl` (stereo not shown), with 15.1%; and `O=C(CN(c1ccc(Cl)cc1)S(=O)(=O)c1ccc(Cl)c([N+](=O)[O-])c1)NCCc1ccccc1`, with 16.8%. Then `COc1ccc(C)cc1-n1nnnc1SCC(=O)NC1CC1`, with 0.673%. For the compound `COc1cc(OC)c2c(=O)c(OC)c(-c3ccc(OC)c(OC)c3)oc2c1`, the “hERG current change (%, negative = inhibition) at 10uM” value is on record as -21.5%.

For the compound `C=CCn1c(=NC(=O)CN2C(=O)CCC2=O)sc2cc(S(N)(=O)=O)ccc21`, the “hERG current change (%, negative = inhibition) at 10uM” value came out at 19.9%. For `COc1cc(/C=C2\SC(c3ccc(C)cc3)=NC2=O)cc(OC)c1OC` the value was 3.32%; for `CC(=O)Nc1ccc(S(=O)(=O)NC(CC(=O)O)c2ccc(OC(C)C)cc2)cc1` (stereo not shown), 1.57%; for `O=C(CNS(=O)(=O)c1ccc(F)cc1)N1CCCCCC1`, 13.1%. For `Cc1ccc(NC(=O)c2cc(-c3cccs3)on2)cc1C` the value was 5.78%. Then `c1ccc(-n2ncc3c(NCCN4CCOCC4)ncnc32)cc1`, with -14.5%; and `Cc1nn(-c2nc(-c3ccco3)cc(C(F)(F)F)n2)c(C)c1Cl`, with -2.1%. With `O=C(CN1C(=O)C(=O)N(Cc2ccccc2)C1=O)Nc1cc(Cl)cc(Cl)c1`, the “hERG current change (%, negative = inhibition) at 10uM” value is 0.177%. For `O=C(Nc1ccc2c(c1)C(=O)NC2=O)c1cccc(C(F)(F)F)c1` the value was 18.8%; for `CCOc1ccc(NC(=S)N2CCCC2)cc1`, 9.13%; for `CC(=O)c1ccc(N2CCN(C(=O)C3CCN(S(=O)(=O)c4cccs4)CC3)CC2)cc1`, -11.5%. For `Cn1c(C(=O)N2CCc3ccccc3C2)cc2c(=O)n3ccccc3nc21` the value was -22.5%; for `O=S(=O)(c1ccc(Br)cc1)c1nc(-c2ccccc2)oc1NCc1cccnc1`, 5.48%. Turning to `CC(=O)Nc1ccc(Nc2nc3ccccc3nc2NS(=O)(=O)c2ccccc2)cc1`, the “hERG current change (%, negative = inhibition) at 10uM” value is -4.76%. As to `Cc1cccc(C(=O)Nc2cccc(-c3ccc4nncn4n3)c2)c1`, the “hERG current change (%, negative = inhibition) at 10uM” value is -1.13%. Consider `Brc1ccccc1Cn1c(-c2cncs2)nc2ccccc21`, for which the “hERG current change (%, negative = inhibition) at 10uM” value was -7.99%. For the compound `O=C(CCCN1C(=O)CCC1=O)Nc1ccccc1F`, the “hERG current change (%, negative = inhibition) at 10uM” value was determined as 10.8%. For `CCN(CC)CCCn1c2c(c(SCC(=O)Nc3ccc4c(c3)OCCO4)nc1=O)CCC2` the value was -43.4%. Then `NC(=O)c1nn(-c2ccccc2)nc1NC(=O)CSc1nnnn1-c1ccc(Cl)cc1`, with -53.7%. As to `Cc1ccc(-c2nnc(SCC(=O)N/N=C/c3ccccc3C(=O)O)n2-c2ccccc2)cc1`, the “hERG current change (%, negative = inhibition) at 10uM” value was -8.62%. Then `O=c1c2ccccc2ncn1-c1cccc(Br)c1`, with -6.76%.

Consider `Cc1nc2ccccc2n1CC(=O)NN`, for which the “hERG current change (%, negative = inhibition) at 10uM” value is 28.3%. For `Cc1cc2[nH]c(=O)c(=O)[nH]c2cc1S(=O)(=O)NC1CCC(C)CC1` (stereo not shown) the value was 4.08%; for `COCCNc1nc(-c2cc(C)n(CCc3ccc(OC)cc3)c2C)cs1`, 7.65%. For `CCOC(=O)N1CCN(c2ccc(C(C)=O)cc2F)CC1` the value was 5.68%. Then `O=C(NCc1ccncc1)C(=O)C1C(=O)Nc2ccccc21` (stereo not shown), with 11.6%; and `CCOC(=O)c1c(N2C(=O)C=CC2=O)sc(C)c1C`, with -4.52%; and `O=S(=O)(c1ccc(Cl)cc1)N1CCN(c2ccc(N3CCOCC3)nn2)CC1`, with -13%. As for `CC(C)OC(=O)CC(=O)CSc1nc2c(cc1C#N)CCC2`, the “hERG current change (%, negative = inhibition) at 10uM” value worked out at 20.1%. Then `Cc1ccccc1N1C(=O)NC(=O)/C(=C\c2cc(Br)c(N3CCOCC3)o2)C1=O`, with 14.2%. Then `O=C1NCCN1CCNS(=O)(=O)c1ccc2ccccc2c1`, with 9.35%; and `O=C(c1cccc(Cl)c1)N1CCN(c2ncnc3c2cnn3-c2ccccc2)CC1`, with -11.8%; and `Cc1[nH]c(=O)[nH]c(=O)c1S(=O)(=O)Nc1cccc([N+](=O)[O-])c1C`, with 7.76%.

In the case of `O=C(O)/C=C/C(=O)Nc1nc(-c2ccc3ccccc3c2)cs1`, the “hERG current change (%, negative = inhibition) at 10uM” value is reported as 9.3%. Then `Cc1cccc(NC(=O)CSCc2c(C)noc2C)c1C`, with 17.3%; and `O=C(Cc1ccccc1)c1c[nH]c(C(=O)O)c1`, with 36.6%; and `O=C1CC(C(=O)NC2CCCCC2)C2(CCCCC2)O1` (stereo not shown), with -1.23%. Turning to `O=S1(=O)CC(N2CCCCC2)C(N2CCCCC2)C1` (stereo not shown), the “hERG current change (%, negative = inhibition) at 10uM” value stood at 1.51%.

Turning to `COc1ccc(S(=O)(=O)N2CCOC2CNC(=O)C(=O)NCc2ccc3c(c2)OCO3)cc1OC` (stereo not shown), the “hERG current change (%, negative = inhibition) at 10uM” value is given as -2.72%. `Oc1c(C(Nc2ccccn2)c2cccnc2)cc(Cl)c2cccnc12` (stereo not shown): the “hERG current change (%, negative = inhibition) at 10uM” value is -16.7%.

As for `CCOC(=O)NC(C(Cl)(Cl)Cl)S(=O)(=O)c1ccccc1` (stereo not shown), the “hERG current change (%, negative = inhibition) at 10uM” value was -6.98%. Then `COc1ccc(NC(=O)CCC(=O)NCCO)cc1`, with 22.3%; and `Cc1cccc(-c2nc(CNC(=O)c3ccco3)cs2)c1`, with -57.9%. As for `COc1ccc(N2CC(C(=O)N[C@@H](C)C(=O)NCCc3ccccc3)CC2=O)cc1` (stereo partly shown), the “hERG current change (%, negative = inhibition) at 10uM” value is reported as 16%. With `CCCN(CCC)S(=O)(=O)c1ccc(NC(=O)COc2ccccc2)cc1`, the “hERG current change (%, negative = inhibition) at 10uM” value was -8.2%. Then `O=C(Nc1ccccc1)c1ccc(NCCc2ccccc2)c([N+](=O)[O-])c1`, with 11.7%; and `CN1CCOc2cc(S(=O)(=O)Nc3ccc(F)cc3)ccc21`, with -9.64%; and `CS(=O)(=O)N(CC(=O)Nc1ccc2c(c1)OCO2)Cc1ccc(Cl)cc1`, with -6.53%. In the case of `C/C(N)=C(/C#N)C(=O)COC(=O)c1ccccc1O`, the “hERG current change (%, negative = inhibition) at 10uM” value is recorded as -0.192%. Then `Cc1ccccc1C(=O)Nc1ccc(N2CCCCCC2)cc1`, with -19.8%. For `COc1ccc(-n2c(SCC(=O)Nc3ccc(C(=O)O)cc3)nnc2-c2cccs2)cc1` the value was 14.3%; for `COc1ccc(O)c(CN2CCC(n3nccc3NC(=O)CCOc3ccccc3)CC2)c1`, -60.4%; for `O=[N+]([O-])c1ccc(NCCCO)c(S(=O)(=O)N2CCOCC2)c1`, -11.1%. Then `C=C1CCN([C@@H](CC(C)C)C(=O)N2CCCC2)S(=O)(=O)c2ccccc21`, with -54.7%; and `Cc1ccc(NC(=S)NC(=O)c2ccccc2)cc1NC(=S)NC(=O)c1ccccc1`, with 14.3%.
